Results on 153 variants are retold here after a collection of fitness landscapes (doi:10.1126/science.1257360).

To fix the notation:
B1: PhoQ; a variant is named by its letters at X, in order, P23837 (parent)
chain: MKKLLRLFFPLSLRVRFLLATAAVVLVLSLAYGMVALIGYSVSFDKTTFRLLRGESNLFYTLAKWENNKLHVELPENIDKQSPTMTLIYDENGQLLWAQRDVPWLMKMIQPDWLKSNGFHEIEADVNDTSLLLSGDHSIQQQLQEVREDDDDAEMTHSVAVNVYPATSRMPKLTIVVVDTIPVELKSSYMVWSWFIYVLSANLLLVIPLLWVAAWWSLRPIEALAKEVRELEEHNRELLNPATTRELTSLVRNLNRLLKSERERYDKYRTTLTDLTHSLKTPLXXLQXXLRSLRSEKMSVSDAEPVMLEQISRISQQIGYYLHRASMRGGTLLSRELHPVAPLLDNLTSALNKVYQRKGVNISLDISPEISFVGEQNDFVEVMGNVLDNACKYCLEFVEISARQTDEHLYIVVEDDGPGIPLSKREVIFDRGQRVDTLRPGQGVGLAVAREITEQYEGKIVAGESMLGGARMEVIFGRQHSAPKDE

The other results are listed elsewhere or left out.

Variants of B1 are the subject of the test. Nature of the test: enrichment ratio after two sorts for PhoP signalling (ratio (wild type AVST 3.29)); higher = more functional. Particulars: with PhoP (E. coli).
Take NMNL: the enrichment ratio was at most 0.25.

Take HDLW: the enrichment ratio was at most 0.25.

For the variant QTNI, the enrichment ratio is at most 0.25. As to LCYS, the enrichment ratio was at most 0.25. Take MKWR: the enrichment ratio is at most 0.25. For the variant HAYR, the enrichment ratio was at most 0.25. As for IPNA, the figure is at most 0.25. As for TVMA, the figure is 11.1; as for FCAF, at most 0.25; as for NFHY, at most 0.25.

On to NTRW, for which the enrichment ratio is at most 0.25.

As to VVNK, the enrichment ratio is at most 0.25.

As to GWPR, the enrichment ratio was at most 0.25. MMLK: the enrichment ratio was at most 0.25.

As for NNRI, the enrichment ratio is at most 0.25. For GCAV, the enrichment ratio is at most 0.25. The value for QTIC was at most 0.25; that for AMGC was at most 0.25; that for FRLP was at most 0.25. NKSV: the enrichment ratio is at most 0.25.

Regarding QDFW, the enrichment ratio was at most 0.25. For the variant KGFA, the enrichment ratio was at most 0.25. With HSKD, the enrichment ratio is at most 0.25. For the variant HRFD, the enrichment ratio is at most 0.25. Take RYVV: the enrichment ratio is at most 0.25. For GKEG, the enrichment ratio is at most 0.25. In the case of RGAR, the enrichment ratio was at most 0.25.

In the case of IGQM, the enrichment ratio is at most 0.25. Consider VMTT, for which the enrichment ratio was at most 0.25. On to DPHQ, for which the enrichment ratio was at most 0.25. Turning to QSPD, the enrichment ratio was at most 0.25. Consider TIVV, for which the enrichment ratio is at most 0.25. Take MLAH: the enrichment ratio is at most 0.25. As for FAIN, the figure is 0.294. Regarding LSHD, the enrichment ratio was at most 0.25. As for TEST, the enrichment ratio came out at 23.4. Turning to NFVV, the enrichment ratio was at most 0.25. Consider YCSI, for which the enrichment ratio was found to be 0.257. Regarding YWKH, the enrichment ratio was at most 0.25.

For TAIG, the enrichment ratio is at most 0.25. Consider NDYL, for which the enrichment ratio is at most 0.25. The value for DPRK was at most 0.25. In the case of SWAG, the enrichment ratio is at most 0.25. As for PITH, the figure is at most 0.25; as for YPAS, at most 0.25. For WAWA, the enrichment ratio is at most 0.25. QTLR: the enrichment ratio is at most 0.25. As for CYVS, the enrichment ratio was at most 0.25. For PSMW, the enrichment ratio was at most 0.25. For the variant SWFS, the enrichment ratio is at most 0.25. With CINQ, the enrichment ratio was at most 0.25. Consider HCMW, for which the enrichment ratio was at most 0.25.

Regarding NPHW, the enrichment ratio is at most 0.25.

As to QGMM, the enrichment ratio was found to be 31.6. With WVGL, the enrichment ratio is at most 0.25. On to VFLG, for which the enrichment ratio is at most 0.25. As to WGHH, the enrichment ratio is at most 0.25.

With KYEM, the enrichment ratio was at most 0.25.

Take VNNH: the enrichment ratio was at most 0.25.

Take QIPW: the enrichment ratio was at most 0.25. For the variant DLSD, the enrichment ratio is at most 0.25. The value for WIKV was at most 0.25. The value for RCGD was at most 0.25; that for VKWP was at most 0.25; that for KRFM was at most 0.25. For ILVF, the enrichment ratio is at most 0.25.

For the variant HKGY, the enrichment ratio is at most 0.25. SMKP: the enrichment ratio was at most 0.25.

With DSGG, the enrichment ratio was at most 0.25. As to LEFL, the enrichment ratio came out at 1.22. For the variant RKYE, the enrichment ratio was at most 0.25. On to HHMT, for which the enrichment ratio was at most 0.25. The value for VATV was at most 0.25; that for FAFM was at most 0.25; that for VLVI was at most 0.25. As to NNWK, the enrichment ratio was at most 0.25. Turning to WRWC, the enrichment ratio was at most 0.25. For the variant STIY, the enrichment ratio amounted to 1.72. As to SNHT, the enrichment ratio is at most 0.25. As for WMNW, the figure is at most 0.25.

Take KDAD: the enrichment ratio is at most 0.25.

In the case of DKWY, the enrichment ratio was at most 0.25. In the case of ARHR, the enrichment ratio is at most 0.25.

Turning to MRTQ, the enrichment ratio is at most 0.25. Regarding VACA, the enrichment ratio is at most 0.25.

For GDDI, the enrichment ratio is at most 0.25. Consider SDPA, for which the enrichment ratio was at most 0.25.

Regarding ESYR, the enrichment ratio was at most 0.25. The value for REIP was at most 0.25. As for GCTW, the enrichment ratio is at most 0.25. On to FLCI, for which the enrichment ratio was determined as 0.953. The value for VWWH was at most 0.25. As for GWYR, the figure is at most 0.25. On to GPYM, for which the enrichment ratio was at most 0.25. Take AMRG: the enrichment ratio is at most 0.25.

Take WPMF: the enrichment ratio is at most 0.25.

Turning to WRRQ, the enrichment ratio is at most 0.25. LQDW: the enrichment ratio was at most 0.25.

Regarding PYGV, the enrichment ratio is at most 0.25. Regarding DHQW, the enrichment ratio was at most 0.25.

For the variant CRLI, the enrichment ratio was at most 0.25.

Consider DQWA, for which the enrichment ratio was at most 0.25. SWWA: the enrichment ratio was at most 0.25. With LEYY, the enrichment ratio was at most 0.25. As for PFFV, the figure is at most 0.25; as for QAFT, at most 0.25; as for QQWI, at most 0.25. Consider QLFK, for which the enrichment ratio is at most 0.25. As for GVNR, the enrichment ratio is at most 0.25. Take LCES: the enrichment ratio is at most 0.25. As for FEMN, the figure is 5.19; as for TVHT, at most 0.25; as for ENDY, at most 0.25. YIKC: the enrichment ratio is at most 0.25. As for VLFC, the figure is at most 0.25; as for PLEK, at most 0.25; as for LKEG, at most 0.25. For YVIF, the enrichment ratio is at most 0.25.

As to QKMY, the enrichment ratio was at most 0.25. On to AVIR, for which the enrichment ratio was found to be 1.06. The value for HPYV was at most 0.25. Consider RVQM, for which the enrichment ratio was at most 0.25. Take DHSH: the enrichment ratio is at most 0.25. Consider LLRW, for which the enrichment ratio is at most 0.25. As for GYGG, the figure is at most 0.25. For QTQM, the enrichment ratio was at most 0.25. As to FSHQ, the enrichment ratio was at most 0.25.

As to FSFE, the enrichment ratio was at most 0.25. Regarding NQGL, the enrichment ratio is at most 0.25.

Consider DNID, for which the enrichment ratio was at most 0.25. The value for HDVW was at most 0.25; that for DWTK was at most 0.25; that for PMIQ was at most 0.25. Regarding MMLD, the enrichment ratio was at most 0.25.

For the variant MKFN, the enrichment ratio was at most 0.25. Consider MMHN, for which the enrichment ratio is at most 0.25. As to IGRP, the enrichment ratio is at most 0.25. As for EFKS, the enrichment ratio is at most 0.25. As to EECL, the enrichment ratio is at most 0.25. On to SKTG, for which the enrichment ratio is at most 0.25. As for HSNK, the figure is at most 0.25; as for VHLH, at most 0.25. Take IECN: the enrichment ratio was at most 0.25. As to AHFI, the enrichment ratio is at most 0.25. As for QSGP, the figure is at most 0.25; as for PMSN, at most 0.25.

On to RDVH, for which the enrichment ratio was at most 0.25.

Regarding EKVR, the enrichment ratio was at most 0.25. For the variant EGFC, the enrichment ratio was at most 0.25.

Regarding GFNN, the enrichment ratio was at most 0.25.

In the case of TNIG, the enrichment ratio was at most 0.25.

Turning to PYFT, the enrichment ratio is at most 0.25. As for RIIS, the figure is at most 0.25.
